# According to paper PMC4336329 (PLoS ONE, 2015):
# The campaign covered roughly 310,000 compounds. About 14,000 (4.5%) showed an effect of 50% or more. Effects have a minus sign here. This is one part of the list.
# Biological target: human ether-à-go-go-related gene (hERG) potassium channel (human, UniProt Q12809)
# Assay: primary screen, population patch clamp on CHO cells stably expressing hERG
# 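Further: peak tail current of the secondary pulse compared with the same well before compound.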
# Sequence of human ether-à-go-go-related gene (hERG) potassium channel (Q12809 whole entry, looked up): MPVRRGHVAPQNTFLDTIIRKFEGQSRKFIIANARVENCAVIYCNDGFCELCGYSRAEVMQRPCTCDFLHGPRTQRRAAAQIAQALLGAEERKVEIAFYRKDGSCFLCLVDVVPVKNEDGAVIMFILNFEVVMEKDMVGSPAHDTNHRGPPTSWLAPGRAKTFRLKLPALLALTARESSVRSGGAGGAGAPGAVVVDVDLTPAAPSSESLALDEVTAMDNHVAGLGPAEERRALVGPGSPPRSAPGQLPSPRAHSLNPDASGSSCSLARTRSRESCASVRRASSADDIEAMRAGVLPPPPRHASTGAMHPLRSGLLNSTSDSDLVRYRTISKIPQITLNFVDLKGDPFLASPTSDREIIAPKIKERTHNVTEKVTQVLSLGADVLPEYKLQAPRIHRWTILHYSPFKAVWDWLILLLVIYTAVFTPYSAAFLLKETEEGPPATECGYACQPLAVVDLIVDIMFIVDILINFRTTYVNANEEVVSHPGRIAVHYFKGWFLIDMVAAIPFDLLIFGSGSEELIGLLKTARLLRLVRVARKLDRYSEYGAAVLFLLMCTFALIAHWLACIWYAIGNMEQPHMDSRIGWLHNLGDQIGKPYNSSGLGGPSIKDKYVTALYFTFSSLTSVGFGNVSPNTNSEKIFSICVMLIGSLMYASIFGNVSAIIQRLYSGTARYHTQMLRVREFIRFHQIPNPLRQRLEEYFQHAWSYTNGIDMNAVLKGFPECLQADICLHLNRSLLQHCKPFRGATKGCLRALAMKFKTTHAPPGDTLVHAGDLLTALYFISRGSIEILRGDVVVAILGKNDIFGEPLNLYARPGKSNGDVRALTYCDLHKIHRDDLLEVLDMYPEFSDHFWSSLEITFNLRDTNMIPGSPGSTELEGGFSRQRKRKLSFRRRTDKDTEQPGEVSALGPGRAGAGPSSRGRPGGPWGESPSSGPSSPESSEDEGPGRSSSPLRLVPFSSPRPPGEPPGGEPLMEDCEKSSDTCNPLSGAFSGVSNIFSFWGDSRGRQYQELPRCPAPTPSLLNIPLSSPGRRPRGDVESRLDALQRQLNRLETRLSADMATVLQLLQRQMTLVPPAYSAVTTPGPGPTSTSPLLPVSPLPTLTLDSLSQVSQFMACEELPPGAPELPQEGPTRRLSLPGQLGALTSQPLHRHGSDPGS
row,SMILES,"hERG current change (%, negative = inhibition) at 10uM [%]"
1,Cc1ccc(N(CC(=O)NC(C)(C)C)C(=O)CNC(=O)c2cccs2)cc1,3.7
2,NC(=O)Cn1c(S(=O)(=O)Cc2ccccc2)nc2ccccc21,9.67
3,Cc1cc(C)n2nc(N)c(N=Nc3ccccc3)c2n1,-3.32
4,CCN1CCCC1Cn1cnc2c([nH]c3cccc(Cl)c32)c1=O (centres unmarked),-67.2
5,CC(C)CC(=O)NC(NC(=S)Nc1ccccc1)C(Cl)(Cl)Cl (centres unmarked),6.05
6,COc1cc(C(=O)Nc2cccc(S(=O)(=O)NCc3ccco3)c2)cc(OC)c1OC,-35
7,Cc1cc(C)c2c(CC(=O)Nc3nccs3)coc2c1,10.7
8,CCCCNC(=O)c1onc(CSc2cccc(OC)c2)c1C(=O)O,3.99
9,CCc1ccc(N2CC(C(=O)Nc3ccccc3F)CC2=O)cc1 (centres unmarked),-13
10,O=C(Nc1ccccc1)c1cc(-c2ccccc2Cl)no1,-4.91
11,O=C(CN1C(=O)NC(c2ccccc2)(c2ccccc2)C1=O)NC1CCCC1,4.95
12,O=C(C1CC(=O)N(c2ccc(Cl)cc2)C1)N1CCN(Cc2ccc3c(c2)OCO3)CC1 (centres unmarked),-67.7
13,COc1ccccc1N=Nc1ccc(O)c2ncccc12,24.3
14,Cc1cc(C)[n+](C)n1CC(O)Cn1c2ccccc2c2ccccc21.[I-] (centres unmarked),2.06
15,CCCCn1c(CCC(=O)O)ccc1-c1cccs1,12.9
16,COc1ccc(OC)c(NC(=O)CSc2nnc(CNC(=O)c3cc(OC)c(OC)c(OC)c3)o2)c1,5.46
17,COc1ccc(-c2noc(CCC(=O)NCCc3ccccc3)n2)cc1,20.9
18,COc1ccc(C2/C(=C(/O)c3ccc(C)cc3)C(=O)C(=O)N2CCCN2CCOCC2)cc1 (centres unmarked),34
19,CCc1nc(Nc2ccc(F)cc2)c2oc3ccccc3c2n1.Cl,10.3
20,COc1ccc(C(=O)NCC(=O)N2CCN(C(=O)c3ccco3)CC2)cc1,-13.7
21,CC(=O)N1c2ccc(S(=O)(=O)NCCC(=O)Nc3ccc(F)cc3)cc2CC1C (centres unmarked),1.93
22,O=C(CCc1c[nH]c2ccccc12)NCC1CCCO1 (centres unmarked),2.92
23,CC(=O)N1CCc2cc(S(=O)(=O)NCCCN3CCC(C)CC3)ccc21,26.9

row,SMILES,"hERG current change (%, negative = inhibition) at 10uM [%]"
1,O=C(Nc1ccc(Oc2ccc3c(c2)C(=O)N(c2ccc(O)cc2)C3=O)cc1)c1cccs1,5.14
2,COc1ccc(/C=N/NC(=O)C2(C)NC(C)(C)Cc3ccccc32)cc1 (centres unmarked),1.36
3,O=C(Nc1c(-c2ccccc2)nc2ccccn12)c1ccco1,-7.68
4,COC(=O)C1=C(CSCc2ccco2)NC(=O)NC1c1cc(C)ccc1C (centres unmarked),-27.4
5,O=C(NCc1ccc(F)cc1)c1cccnc1C(=O)O,13.5
6,O=C(O)c1cccc(OCc2ccccc2Cl)c1,-8.42
7,COc1ccc(Cn2c(-c3ccccc3)nc3c(c(=O)c4ccccc4n3C)c2=O)cc1,-10.6
8,Cn1c(O)c(/C=C2\C=NN=C2c2ccccc2)sc1=S,0.793
9,Brc1ccccc1Cn1c(-c2cscn2)nc2ccccc21,1.04
10,CCOC(=O)N1CCC(NC(=O)C2CCN(C(=O)N3CC(C)Oc4ccccc43)CC2)CC1 (centres unmarked),-2.01
11,COc1ccccc1N1CCN(C(=O)c2cn(Cc3ccccc3)nc2-c2cccnc2)CC1,-8.12
12,Cc1nc2ccc(NS(=O)(=O)c3c(C)c(C)cc(C)c3C)cc2s1,9.52
13,O=C(c1cccs1)N1CCCC(c2nc3c(nnn3Cc3ccccc3Cl)c(=O)[nH]2)C1 (centres unmarked),-25.5
14,Cc1ccc(-c2ccc(SCC(=O)N3CCc4ccccc43)nn2)cc1,-3.57
15,Cc1ccc(CNC(=O)CCCCn2c(=O)[nH]c3ccsc3c2=O)cc1,12.4
16,CCOC(=O)C1=NN(C(C)=O)C2(CC(=O)N(c3cc(C)cc(C)c3)C2=O)C1 (centres unmarked),-0.489
17,O=C(NCc1ccco1)C1CC(=O)N(c2ccc(Cl)cc2)C1 (centres unmarked),-6.16
18,CC1CCCCN1C(=O)C(=O)c1cn(CC(=O)N2CCCC2)c2ccccc12 (centres unmarked),5.67
19,COc1cc(/C=N/Nc2ccccc2C(F)(F)F)ccc1O,11.4
20,N#CCOC(=O)C1CCN(S(=O)(=O)c2ccc3c(c2)OCCO3)CC1,5.72
21,COc1ccc(N2CCN(C(c3ccco3)c3sc4nc(C)nn4c3O)CC2)cc1 (centres unmarked),-2.41
22,Cl.O=C(O)c1ccc2nc(CO)[nH]c2c1,11.2
23,COc1cc(C2NC(=O)NC(c3ccccc3)=C2C(C)=O)c(Cl)cc1OCC(=O)O (centres unmarked),18.1

row,SMILES,"hERG current change (%, negative = inhibition) at 10uM [%]"
1,Cc1cc(C)cc(NC(=O)CSCc2cnn(-c3ccccc3)c2-n2cccc2)c1,18.3
2,COc1ccc(-c2nnc(OC)c3ccccc23)cc1,-7.99
3,O=C(NC1CC1)c1ccc2snnc2c1,10
4,O=C(COC(=O)c1ccncc1)c1ccc(Cl)c(Cl)c1,7.29
5,CCS(=O)(=O)C1=NN2C(=N)/C(=C\c3ccc(OC(=O)c4ccco4)c(OC)c3)C(=O)N=C2S1,-2.22
6,Br.COc1ncnc2c1NC1=C(S2)C(=NCCC(=O)O)CC(C)(C)C1,14.6
7,CCOC(=O)C1=C(CN2CCN(C(=O)c3ccco3)CC2)NC(=O)NC1c1ccc(C)cc1 (centres unmarked),-63.2
8,Cc1nc2sc(C(c3cccc(F)c3)N3CC(C)OC(C)C3)c(O)n2n1 (centres unmarked),2.42
9,COC(=O)c1sccc1NC(=O)CN(C)NS(=O)(=O)c1ccc(Cl)cc1,18.7
10,CCOC(=O)C1CCCN(C(=O)c2cc(S(=O)(=O)N3CCCCC3)ccc2Cl)C1 (centres unmarked),0.869
11,O=c1c2ccccc2[nH]c(=S)n1Cc1ccc2c(c1)OCO2,4.77
12,CC(C)c1nc2c([nH]1)c(=O)n(C)c(=O)n2C,20.2
13,CCN(CC)C(=O)COc1coc(CN2CCN(c3ccccc3)CC2)cc1=O,13.9
14,CN1C(=O)[C@H](Cc2ccc([N+](=O)[O-])cc2)NC1=S,-0.656
15,Cc1[nH]c2ccccc2c1-c1nc2ccccc2[nH]1,-6.51
16,CC1=C(OC(=O)c2ccccc2)C(C)(C)C(c2ccc(Br)cc2)OC1=O (centres unmarked),-9.55
17,COc1cccc(NC(=O)Nc2nnc(-c3ccccc3SCc3ccccc3)s2)c1,8.22
18,COc1cccc2sc(Nc3nc(-c4ccncc4)cs3)nc12,21.7
19,CCOC(=O)N1CCN(c2nc(-c3cccc(OC)c3)cc(C(F)(F)F)n2)CC1,6.67
20,Cc1ccc(NC(=S)Nc2cccc3ccccc23)cc1,22.7
21,CCc1ccc(S(=O)(=O)N2CCN(Cc3ccco3)CC2)cc1,-28.7
22,CCn1nc(C)c(/C=N/NC(=O)c2c[nH]c3ccccc23)c1C,6.1
23,COC(=O)c1cnc(NNC(=O)c2ccc([N+](=O)[O-])cc2)nc1C(F)(F)F,-11.7

row,SMILES,"hERG current change (%, negative = inhibition) at 10uM [%]"
1,Cc1ccc(Cl)cc1NC(=O)Cn1cccc1,7.71
2,O=C(CSc1cn(CC(=O)N2CCOCC2)c2ccccc12)N1CCOCC1,12.8
3,CC(NC(=O)CSC1=NCCS1)c1ccccc1 (centres unmarked),14.3
4,O=C(Nc1cccc(-n2cnnn2)c1)c1cccc(Cl)c1,-18.9
5,CC1CCN(C2CCN(S(=O)(=O)c3ccc(C(F)(F)F)cc3)CC2)CC1,-37.6
6,COc1ccc(CNC(=O)C2CCN(S(C)(=O)=O)CC2)cc1,7.39
7,COc1ccc(-n2ccc(=O)c(C(=O)O)n2)cc1,20.2
8,NC(=O)c1ccc(C(F)(F)F)n(Cc2ccc(Cl)cc2)c1=O,0.165
9,CCOC(=O)C1=C(CS(=O)(=O)c2ccccc2)NC(=O)NC1c1ccc(OC)c(OC)c1 (centres unmarked),8.34
10,Brc1ccc(C2=Nn3cnnc3SC2)cc1,13.6
11,CC(C)(C)c1cc(=O)[nH]c(SCc2ccccc2Cl)n1,29.9
12,CCOc1ccc(N(CC(=O)NC2CC3CCC2C3)S(=O)(=O)c2ccc(C)cc2)cc1 (centres unmarked),-11
13,Cc1ccc(CSCCNC(=O)c2ccc(C)cc2)cc1,19.1
14,CCOC(=O)C1CCN(C(=O)CSc2nccc(C)n2)CC1,9.79
15,CC(=O)c1ccc(NC(=O)CSc2nccn2CCc2ccccc2)cc1,-0.986
16,CC(C)(C)c1ccc(/C=C2\Oc3cc(O)ccc3C2=O)cc1,21.2
17,CCOc1cc(N2CCOCC2)c(OCC)cc1NC(=O)c1oc2ccccc2c1C,18.6
18,COc1ccc(C(=O)Nc2nnc(S(=O)(=O)Cc3ccccc3)s2)cc1,14.8
19,COC(=O)C(Cc1c[nH]c2ccccc12)NC(=O)c1cncc(Br)c1 (centres unmarked),1.85
20,Cc1ccc(NC(=O)COc2ccc(/C=N/NC(=O)CSCc3ccccc3)cc2)cc1,2.45
